Measured values from PubChem BioAssay AID652106 (National Center for Advancing Translational Sciences (NCATS), 2013).
In all, about 370,000 compounds went through this assay and about 500 (0.14%) were called active. This list was built around the results that the source calls inconclusive (neither active nor inactive); the mix of calls is not that of the screen. The call rests on the fitted dose curve; in most records, active means well fitted activation curve with a large enough effect; inconclusive means small, poorly fitted or top-dose-only effect; inactive means no such curve, though single readings can be large or run the other way. No potency is given beside an inconclusive call; the fits are too rough.
Potency means the concentration at half of the fitted maximal effect; tags describe the fitted curve by direction and shape.

Assay: qHTS of alpha-syn Inhibitors; further: nearly all actives have a fitted effect of over 65% in size; on growth rescue (activation): % of control where 0% means no effect
Conditions: Yeast expressing alpha-synuclein, BacTiter-Glo, 24 h; Potency: growth rescue unless noted; growth rescue (activation): at 46.1 µM (top of the series) unless noted
Summary of the method: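 Screening used galactose-induced yeast with toxic alpha-synuclein levels, exposed to compound for 24 hr at 30 deg C. Cell growth, read with BacTiter-Glo luminescence, gave the measured signal.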
With `COc1ccc(S(=O)(=O)N2CC(O)CC2C(=O)OCC(=O)Nc2ccc(Cl)cn2)cc1` (centres undefined) the Potency was inconclusive [activator, single point]. For `COc1ccc(-c2ccc(NS(=O)(=O)c3cc([N+](=O)[O-])c(C)c([N+](=O)[O-])c3)cc2)nn1`, the Potency was inconclusive [activator, single point]. For `O=C(COc1ccccc1Cl)N1N=C(c2cccs2)CC1c1ccco1` (centres undefined), the Potency was inconclusive [activator, single point]. For `C/C(=N\NC(=O)Cc1cccc2ccccc12)c1ccncc1`, the “growth rescue (activation)” value was inactive: 0.265%. With `COc1cccc(Cn2c(C(C)n3c(-c4cnccn4)nc4ccccc43)nc3ccccc32)c1` (centres undefined) the Potency was inconclusive [activator, single point]. With `COc1ccc(N2CCN(C(=O)c3ccc(NS(=O)(=O)c4ccc(F)cc4)cc3)CC2)cc1` the “growth rescue (activation)” value was inactive: 1.31%. In the case of `CC(=O)Nc1ccc(OCC(O)Cn2cnc3ccccc32)cc1` (centres undefined), the “growth rescue (activation)” value is reported as inactive: -8.12%. In the case of `Nc1sc(-c2ccccc2)cc1C(=O)N1CCN(c2ccccc2)CC1`, the Potency is reported as inconclusive [activator, single point]. In the case of `COc1ccc(C(=O)CCC(=O)Nc2ccc(Cl)cc2)cc1`, the Potency is reported as inconclusive [activator, single point]. In the case of `O=C(Nc1cc(Cl)ccc1Cl)C1Cc2ccccc2O/C1=N\O` (centres undefined), the Potency is reported as inconclusive [activator, single point]. In the case of `CCOC(=O)N1CCC(N(CCN(C)C)C(=S)Nc2ccc(Oc3ccccc3)cc2)CC1`, the Potency is reported as active: 20 µM. In the case of `CC(=O)Nc1ccc(-c2nnc(SCC(=O)NCc3ccco3)n2C)cc1`, the Potency is reported as inconclusive [activator, single point]. In the case of `Cn1ccc2c(-c3ccc4[nH]ccc4c3)cc3c(c21)C1CCC3O1` (centres undefined), the “growth rescue (activation)” value is reported as inactive: 14.1%. With `Cc1ccc(F)cc1NC(=O)Cc1nn(C)c(=O)c2ccccc12` the Potency was inconclusive [activator, single point]. In the case of `O=C(Cc1ccc(Cl)cc1)NCCc1c[nH]c2ccccc12`, the Potency is reported as inconclusive [activator, single point]. With `CN1CCc2c(sc3c2C(=O)NC(c2ccco2)N3)C1` (centres undefined) the “growth rescue (activation)” value was inactive: 0.734%. In the case of `COc1ccc(C(O)c2ncc(-c3cccc4ccccc34)[nH]2)cc1F` (centres undefined), the Potency is reported as inconclusive [activator, single point]. In the case of `Cc1cc(C(=O)N2CCC(Cc3ccccc3)CC2)ccc1[N+](=O)[O-]`, the “growth rescue (activation)” value is reported as inactive: -11.1%. For `C[C@@H](C(=O)NCCc1ccc(F)cc1)N1C(=O)N2CCc3c([nH]c4ccccc34)[C@@]2(C)C1=O`, the Potency was inconclusive [activator, single point].
